Data: paper PMC4336329 (PLoS ONE, 2015)
Hit rate of the full screen: of about 310,000 compounds, about 14,000 (4.5%) showed an effect of 50% or more. Effects have a minus sign here. Some of the results follow.

Target: human ether-à-go-go-related gene (hERG) potassium channel (human, UniProt Q12809)
Assay: primary screen, population patch clamp on CHO cells stably expressing hERG
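Further: peak tail current of the secondary pulse compared with the same well before compound.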

Chain of human ether-à-go-go-related gene (hERG) potassium channel (Q12809 whole entry, looked up): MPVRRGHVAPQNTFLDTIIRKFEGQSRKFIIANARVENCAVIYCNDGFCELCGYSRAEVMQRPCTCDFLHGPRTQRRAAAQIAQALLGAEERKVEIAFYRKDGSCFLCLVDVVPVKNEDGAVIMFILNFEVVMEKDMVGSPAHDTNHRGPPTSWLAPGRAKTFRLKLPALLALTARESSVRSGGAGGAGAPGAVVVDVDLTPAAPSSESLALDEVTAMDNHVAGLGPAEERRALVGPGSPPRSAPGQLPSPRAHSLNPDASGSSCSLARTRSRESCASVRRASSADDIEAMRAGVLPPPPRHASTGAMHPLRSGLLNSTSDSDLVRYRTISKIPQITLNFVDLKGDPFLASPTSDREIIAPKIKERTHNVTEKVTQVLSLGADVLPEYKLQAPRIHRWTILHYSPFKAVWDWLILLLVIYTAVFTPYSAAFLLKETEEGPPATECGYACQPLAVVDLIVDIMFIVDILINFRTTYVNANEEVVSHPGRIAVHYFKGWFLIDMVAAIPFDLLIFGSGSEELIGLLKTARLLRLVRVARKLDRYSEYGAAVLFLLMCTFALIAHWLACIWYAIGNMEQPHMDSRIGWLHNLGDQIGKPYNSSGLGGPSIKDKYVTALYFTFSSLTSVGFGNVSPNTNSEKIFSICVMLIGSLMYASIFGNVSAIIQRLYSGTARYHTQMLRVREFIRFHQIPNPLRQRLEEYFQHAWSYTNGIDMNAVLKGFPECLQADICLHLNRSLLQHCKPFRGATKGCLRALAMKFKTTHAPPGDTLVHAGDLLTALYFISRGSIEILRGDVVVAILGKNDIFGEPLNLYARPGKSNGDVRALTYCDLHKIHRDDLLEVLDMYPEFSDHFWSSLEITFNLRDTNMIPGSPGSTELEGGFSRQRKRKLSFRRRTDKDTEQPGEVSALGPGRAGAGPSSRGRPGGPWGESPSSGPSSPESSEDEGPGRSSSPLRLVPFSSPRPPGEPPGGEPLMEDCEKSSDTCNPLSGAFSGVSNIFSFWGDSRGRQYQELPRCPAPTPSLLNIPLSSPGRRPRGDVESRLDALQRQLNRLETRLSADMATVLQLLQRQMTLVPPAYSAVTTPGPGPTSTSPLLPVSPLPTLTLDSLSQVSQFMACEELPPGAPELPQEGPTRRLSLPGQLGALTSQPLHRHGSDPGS

In order of rising “hERG current change (%, negative = inhibition) at 10uM” value:
1. N=c1c(C(=O)NC2CCCC2)cc2c(=O)n3ccccc3nc2n1CCCN1CCOCC1  -78.2%
2. c1ccc(SCCOCCN2CCc3ccccc3C2)cc1  -75.3%
3. CC(NC(=O)c1ccc(C#N)cc1)C1CC2CCC1C2 (stereo not shown)  -58.8%
4. CSCCC(NS(=O)(=O)c1ccccc1)C(=O)OCc1cc(=O)oc2cc(O)ccc12 (stereo not shown)  -57.3%
5. CCCCCCCNC(=O)C1(CC2CC(c3ccc(Cl)cc3)=NO2)CCN(C(=O)C2CCCC2)CC1 (stereo not shown)  -55.8%
6. Cc1ccc(Cn2nc(C)c(NC(=O)CCCn3nc([N+](=O)[O-])c(Cl)c3C)c2C)cc1  -50.7%
7. CN(C)CCCN1c2ccccc2Sc2ccc(Cl)cc21.Cl  -42.2%
8. COc1ccc(CN2CCN(c3ccccn3)CC2)c(OC)c1C.O=C(O)C(=O)O  -37.1%
9. Cc1ccc(CN=c2c([N+](=O)[O-])nn(-c3cccc(C)c3)n2O)cc1  -32.7%
10. O=C(COC(=O)C1CC(=O)N(C2CCCCC2)C1)c1ccc(F)cc1 (stereo not shown)  -31%
11. COc1ccc(OC)c(NC(=O)CN2CCN(C(=O)c3ccco3)CC2)c1  -23.7%
12. CCN(C(=O)c1cc(S(=O)(=O)N2CCc3ccccc32)cn1C)c1ccccc1  -23.6%
13. CCN(Cc1ccc2c(c1)OCO2)C(=O)CSc1ncnc2sccc12  -23.4%
14. COc1ccc(NC(=O)C2CC(=O)N(CCc3ccc(F)cc3)C2)c(OC)c1 (stereo not shown)  -18.7%
15. CN(CC(=O)Oc1ccc(-c2nnco2)cc1)S(=O)(=O)c1ccc(F)cc1  -18.6%
16. Nc1ccc(C(=O)OCc2nc3ccccc3s2)cc1  -16.5%
17. CCN1CCCC1CNC(=O)CCc1nnc(CCC2CCCCC2)o1 (stereo not shown)  -16%
18. O=C(O)CCC(=O)Nc1nc2nc(-c3ccccc3)cc(-c3ccccc3)n2n1  -15.7%
19. O=C(Cn1c(-c2ccco2)nc2ccccc21)N1CCCCC1  -10.1%
20. CCC(C)NC(=O)CSc1nc2c(sc(=S)n2Cc2ccco2)c(=O)n1-c1ccccc1 (stereo not shown)  -9.99%
21. COc1cc(C(=O)N/N=C/c2ccsc2C)cc(OC)c1OC  -9.66%
22. C=CCN(CC=C)CCOc1cc(C)ccc1[N+](=O)[O-].O=C(O)C(=O)O  -9.22%
23. O=C(Nc1cccc(F)c1)C1CCN(C(=O)c2ccccc2Cl)CC1  -8.66%
24. Cn1cccc1C(=O)NNC(=O)c1ccccc1Br  -8.49%
25. CN(CC1CCOCC1)C(=O)CC1C(=O)NCCN1Cc1ccc(-c2ccccc2)cc1 (stereo not shown)  -8.41%
26. CC(C)Cn1c(=O)c2ccccc2n2c(SCC(=O)N3c4ccccc4CC3C)nnc12 (stereo not shown)  -7.91%
27. N#CC1(NC(=O)COC(=O)c2cc(O)c3ccccc3c2O)CCCCC1  -7.56%
28. CCCCCCCCCCCNC(=O)c1ccoc1C  -7.37%
29. O=C(NCc1cn(-c2ccccc2)nc1-c1ccccc1)c1ccc([N+](=O)[O-])cc1  -7.07%
30. COc1ccccc1CNC(=O)CS(=O)(=O)c1ccc(C)cc1  -6.74%
31. C/C(=N\OC(=O)c1ccccc1F)c1nccs1  -6.6%
32. COc1cccc(C2C=C(Nc3ccccc3)C(=O)N2c2ccccc2)c1 (stereo not shown)  -4.62%
33. O=C(CN1CCN(Cc2ccccc2)CC1)Nc1ccc(S(=O)(=O)N2CCOCC2)cc1  -4.43%
34. CCCN1C(=O)/C(=C/c2ccc(C)o2)SC1=Nc1ccc(OC)cc1  -2.66%
35. Cc1ccc(F)cc1NC(=O)COC(=O)COc1ccc(C#N)cc1  -2.48%
36. Cc1[nH]n(-c2ccccc2)c(=S)c1C=NCCCN=Cc1c(C)[nH]n(-c2ccccc2)c1=S  -2.22%
37. CC(O)(c1ccccc1)C(c1ccccc1)C1CCCCN1 (stereo not shown)  -2.14%
38. COc1ccccc1C(C)NC(=O)c1ccccc1SCC(=O)N1CCCC1 (stereo not shown)  -2.12%
39. O=C(Cn1c(=O)oc2cc(S(=O)(=O)N3CCc4ccccc43)ccc21)NC1CCCC1  -1.71%
40. Cc1cccc(-c2nc(CN3CCN(C(=O)C4CCCO4)CC3)cs2)c1 (stereo not shown)  -1.71%
41. COCCNC(=O)c1ccccc1NC(=O)CCSc1ccccc1  -1.11%
42. O=C(Nc1nc(=O)c2ccccc2s1)c1ccc(Cl)cc1  -0.334%
43. O=C(COc1nsnc1N1CCOCC1)Nc1ccc([N+](=O)[O-])cc1  0.317%
44. O=C(Cn1c(C(F)(F)F)nc2ccccc21)c1ccccc1  0.318%
45. Cc1ccc(-n2nc3c(N4CCC(C(=O)NCCc5cccs5)CC4)nnc(C)c3c2C)cc1  0.41%
46. COc1nc(C)nc(NC(=O)NS(=O)(=O)c2ccc(C)cc2)n1  0.939%
47. CCOC(=O)Cc1csc(NC(=S)NC(=O)c2cc(OC)c(OC)c(OC)c2)n1  2.14%
48. CCOCC(=O)Nc1ccc(S(=O)(=O)Nc2nccs2)cc1  2.41%
49. CNC(=O)CSc1nnc(C(C)C)n1C  2.47%
50. O=C(NCCC(=O)N1CCOCCOCCOCCOCC1)OCc1ccccc1  2.54%
51. O=C(CCNC(=O)c1ccc([N+](=O)[O-])cc1)Nc1ccc(S(=O)(=O)N2CCOCC2)cc1  2.67%
52. N#Cc1ccccc1OCC(=O)OCC(=O)Nc1ccc2c(c1)OCO2  2.79%
53. CC(C)CNC(=O)COc1ccc(Sc2ccc(OCC(=O)NCC(C)C)cc2)cc1  2.92%
54. CC(C)c1[nH]nc2c1C(C(C)C)C(C#N)=C(N)O2 (stereo not shown)  2.97%
55. COc1cccc(NC(=O)c2ncn[nH]2)c1  3.76%
56. C=CCn1c(Cc2csc(N)n2)nnc1SCC(=O)Nc1ccccc1C(F)(F)F  4.01%
57. COc1cc(/C=C(\C#N)C(=O)NCC2CCCO2)ccc1OCCC(C)C (stereo not shown)  4.67%
58. Fc1ccc(CSc2nnc(-c3cccnc3)o2)cc1  5.24%
59. Cc1cc(C)n(CCCO)c(=O)c1C#N  5.48%
60. O=C(CN1C(=O)c2ccccc2C1=O)N1CCN(c2nnc(-c3ccccc3)c3ccccc23)CC1  5.5%
61. CCN(CC(=O)Nc1ccccc1C(F)(F)F)C(=O)c1ccc2[nH]c3c(c2c1)CC(C)CC3 (stereo not shown)  6.89%
62. Cc1ccc(NC(=O)NNC(=O)C2CCN(Cc3ccc(F)cc3Cl)CC2)cc1  7.27%
63. O=c1c2ccccc2c(-c2ccccc2)nn1Cc1ccccc1  7.29%
64. COc1ccc(OC)c(/C=C/C(=O)c2ccc3c(c2)OCO3)c1  7.67%
65. CC1=C(C(=O)N2CCCC(N3CCN(c4ccccc4C)CC3)C2)OCCO1 (stereo not shown)  7.81%
66. Nc1ccc(C(=O)NCc2ccccc2)cc1  7.89%
67. CCOC(=O)c1ccc(/C=C2/C=C(c3ccccc3)N(c3ccc(Cl)c(C(=O)O)c3)C2=O)cc1  8.41%
68. O=C(Nc1ccccc1N1CCN(c2ccccc2)CC1)c1ccccc1F  8.96%
69. COc1ccc(C(CC(=O)Nc2ccc(F)cc2)c2ccccc2)cc1 (stereo not shown)  9.13%
70. Cc1csc(N2CCN(c3cc4nc(-c5ccncc5)[nH]c4cc3Cl)CC2)n1  9.18%
71. O=C(c1ccccc1)C(Cn1cncn1)C(Sc1ccccc1)c1ccccc1 (stereo not shown)  9.47%
72. C=CCOc1c(Cl)cc(CNc2ccc(C)c(Cl)c2)cc1OC  9.93%
73. COc1ccc(C2C(C)C3(O)CC(C#N)(C(=O)N3)C2(C#N)C#N)cc1 (stereo not shown)  10%
74. CCCOc1ccc(C(CC(=O)O)NC(=O)c2ccc3c(c2)OCO3)cc1 (stereo not shown)  10.6%
75. CC(NC(=O)c1cn(C)c2ccc(S(=O)(=O)N3CCCC3)cc2c1=O)c1ccccc1 (stereo not shown)  10.6%
76. O=C(CSCc1cccs1)N1CCCC1  11%
77. C=CCOc1ccc(C(c2c(C)n(C)n(-c3ccccc3)c2=O)c2c(C)n(C)n(-c3ccccc3)c2=O)cc1  12%
78. C=CCNC(=O)c1c(Cl)cccc1Cl  12.8%
79. COc1ccc(C(C(=O)NC2CCCCC2)N(C(=O)CCl)c2cccc(Cl)c2)cc1 (stereo not shown)  13.5%
80. CCOC(=O)c1c(S(=O)(=O)NCC(=O)NCc2ccc(C)cc2)c(C)n(C)c1C  14.2%
81. Cc1ccc(O)c(Nc2nc(-c3ccccc3)nc3ccccc23)c1  14.9%
82. Cc1cc(-n2c(SCc3ccccc3F)nc3n[nH]c(C)c3c2=N)ccc1Cl  15.8%
83. C=CCc1cc(/C=C2/NC(=O)NC2=O)cc(OCC)c1O  20%
84. CCCN1CCC(=O)N(CCN=[N+]=[N-])CC1  20.6%
85. COc1ccc(S(=O)(=O)NCC2CCC(C(=O)NCC(OC)OC)CC2)cc1 (stereo not shown)  20.7%
86. O=C(c1ccc2c(c1)OCO2)N1CCN(c2ncccn2)CC1  21.5%
87. CN(c1ccc(C(=O)Nc2ccc(CC#N)cc2)cc1)S(C)(=O)=O  26.4%
88. CCc1nc(SCc2ccccc2C)n[nH]1  26.9%
